The source of these data is PubChem BioAssay AID360 (National Center for Advancing Translational Sciences (NCATS), 2006).

The structures appear in SMILES notation. About 550 (1.1%) of roughly 48,000 compounds were called active. Inconclusive results (about 4%) are left out. No stated cut-off is given here; in the data, active means potency below about 15 µM; inconclusive means mostly about 16 µM to 33 µM; inactive means weaker than that. Some of the results follow.
Potency means the concentration at half of the fitted maximal effect.

For the test, the target named is Lysosomal acid glucosylceramidase (Homo sapiens) (UniProt P04062). The experiment in a line: Glucocerebrosidase.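 Further: the screen sought inhibitors.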 The conditions noted are these: purified enzyme, resorufin glucoside fluorescence (screen aimed at inhibitors), 20 min. An outline of the steps: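 Wild-type enzyme at 0.2 nM final in 50mM citric acid/KH2PO4, 10mM sodium taurocholate, 0.01% tween-20, pH 5.9, with resorufin beta-D-glucopyranoside at 30 uM final. Compounds titrated, 20 min at RT, red fluorescence read; AC50 from titration.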
Sequence of UniProt P04062 (P04062 whole entry, looked up): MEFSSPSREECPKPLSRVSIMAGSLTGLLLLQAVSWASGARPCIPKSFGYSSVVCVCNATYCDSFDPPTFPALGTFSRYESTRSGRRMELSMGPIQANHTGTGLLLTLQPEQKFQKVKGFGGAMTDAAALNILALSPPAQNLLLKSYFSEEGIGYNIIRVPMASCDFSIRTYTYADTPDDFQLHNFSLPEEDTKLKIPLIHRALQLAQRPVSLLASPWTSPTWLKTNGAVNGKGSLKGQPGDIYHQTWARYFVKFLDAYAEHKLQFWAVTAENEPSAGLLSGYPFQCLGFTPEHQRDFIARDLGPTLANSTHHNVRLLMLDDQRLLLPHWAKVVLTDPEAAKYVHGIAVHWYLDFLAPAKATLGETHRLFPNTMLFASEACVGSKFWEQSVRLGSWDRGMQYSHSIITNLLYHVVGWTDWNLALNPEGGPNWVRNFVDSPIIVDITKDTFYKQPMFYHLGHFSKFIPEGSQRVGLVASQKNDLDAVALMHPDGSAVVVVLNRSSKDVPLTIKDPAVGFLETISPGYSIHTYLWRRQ
For the compound `O=C(CN1CCN(Cc2ccc(Cl)cc2)C1=O)N1CCC2(CC1)OCCO2`, the Potency is inactive: > 76.9 µM.
As for `C=Cn1ccnc1P(=S)(c1nccn1C=C)C1CCCCC1`, the figure is inactive: > 76.9 µM; as for `CCCNc1oc(-c2cccc3ccccc23)nc1C#N`, inactive: > 76.9 µM.
In the case of `CC(=O)N1CN2CN(C(C)=O)CC(C(=O)c3ccc(Br)cc3)(C2)C1` it was inactive: > 76.9 µM.
Regarding `COc1ccccc1N1CCN(C(CNC(=O)Oc2ccccc2)c2cccnc2)CC1` (stereo unspecified), the Potency is inactive: > 76.9 µM.
In the case of `Cc1ccc(N(C)C(=O)Oc2cccc3cccnc23)cc1` it was inactive: > 76.9 µM; in that of `C=CCN1C(=O)C2(C(C(=O)OCC)=C(N)Oc3c2c(=O)oc2ccccc32)c2ccccc21` (stereo unspecified), inactive: > 76.9 µM.
For the compound `Cc1nc2c(-c3ccccc3)c(C)nn2c(C)c1CCC(=O)N1CCC2(CC1)OCCO2`, the Potency is inactive: > 76.9 µM.
For `CCC(=Nc1ccc(OC)cc1OC)c1c(O)n(C2CCCCC2)c(=O)[nH]c1=O`, the Potency was inactive: > 76.9 µM.
As for `N=C(N)c1c(O)n(C2CCCCC2)c(=O)n(C2CCCCC2)c1=O`, the figure is inactive: > 76.9 µM; as for `O=c1c2ccccc2nc(-c2ccco2)n1-c1nccs1`, inactive: > 76.9 µM; as for `N#Cc1ccccc1Cn1cc(C(=O)c2ccco2)c2ccccc21`, inactive: > 76.9 µM.
In the case of `CC(C)OC12Oc3ccccc3C=C1N1CCC2CC1` (stereo unspecified) it was inactive: > 76.9 µM; in that of `O=C(c1ccc2c(=O)n(Cc3ccc4c(c3)OCO4)c(=S)[nH]c2c1)N1CCC2(CC1)OCCO2`, inactive: > 76.9 µM.
As for `CC(Oc1ccc(-c2ccccc2)cc1)C(=O)O` (stereo unspecified), the figure is inactive: > 76.9 µM.
Turning to `Cc1ccc2c(c1)CC1(CN2C)C(=O)NC(=O)N(c2cc(C)ccc2C)C1=O` (stereo unspecified), the Potency is inactive: > 76.9 µM.
In the case of `CCn1c(=O)cc(OCC(=O)N2CCN(Cc3ccc4c(c3)OCO4)CC2)c2ccccc21` it was inactive: > 76.9 µM; in that of `O=c1[nH]c2c(c(=O)n1C1CCCCC1)CCC2`, inactive: > 76.9 µM; in that of `CN1C(=O)C(C2(C#N)CCCCC2)C(=O)N(C)C1=O`, inactive: > 76.9 µM.
As for `CCN(CC)CCCN=Cc1c(O)n(CCc2ccc(F)cc2)c(=O)[nH]c1=O`, the figure is inactive: > 76.9 µM.
In the case of `Cc1ccccc1C1=NCC(=O)N(CC(=O)NCc2ccco2)c2sc3c(c21)CCCC3` it was inactive: > 76.9 µM.
Regarding `CC(C)(C)P(=O)(c1ccncc1)N1CCCC1` (stereo unspecified), the Potency is inactive: > 76.9 µM.
As for `O=c1[nH]c(=O)n(Cc2ccco2)c(O)c1C=NC1CC1`, the figure is inactive: > 76.9 µM; as for `CC(N)C(=O)c1ccco1` (stereo unspecified), inactive: > 76.9 µM; as for `CCC(=NCCCN(C)C)c1c(O)n(-c2ccc(OC)cc2)c(=O)[nH]c1=O`, inactive: > 76.9 µM.
As for `O=c1cc(C2CCNCC2)[nH][nH]1`, the figure is inactive: > 76.9 µM; as for `CCC(=Nc1ccc2c(c1)CCC2)c1c(O)n(C)c(=O)n(C)c1=O`, inactive: > 76.9 µM.
In the case of `Cc1ccccc1-n1c(O)c(C=NCCN2CCOCC2)c(=O)[nH]c1=O` it was inactive: > 76.9 µM.
Consider `O=P1(Nc2ccc(F)cc2)COc2ccccc2OC1`, for which the Potency is inactive: > 76.9 µM.
In the case of `Cc1cc(C)n2nc(C)[n+](C)c2n1` it was inactive: > 76.9 µM; in that of `CCN(CC)CCCN=Cc1c(O)n(-c2cccc(C)c2C)c(=O)[nH]c1=O`, inactive: > 76.9 µM; in that of `Cc1occc1C(=O)N1CCC2(CC1)OCCO2`, inactive: > 76.9 µM.
With `O=c1cccc2n1CC1CC2CN(c2ncnc3c2cnn3-c2ccc(Cl)cc2)C1` (stereo unspecified), the Potency was inactive: > 76.9 µM.
In the case of `O=C1C2CCCN2C(c2cccs2)N1c1ccccn1` (stereo unspecified), the Potency was inactive: > 76.9 µM.
Take `Cc1cc([P+](=O)O)c(C)n1-c1ccc(Br)cc1`: the Potency was inactive: > 76.9 µM.
As for `COC(=NC1CCCC1)C(O)c1c[nH]c2ccccc12` (stereo unspecified), the figure is inactive: > 76.9 µM; as for `CN(C=O)CP(=O)(O)CN(C)C=O`, inactive: > 76.9 µM; as for `COc1ccc(CN2C(=O)CC(=O)NC2=O)cc1`, inactive: > 76.9 µM.
In the case of `Cc1sc2ncn(CC(=O)NCC(=O)N3CCC4(CC3)OCCO4)c(=O)c2c1C` it was “inactive”; in that of `CCCn1nc2ccccc2c1P(=O)(N1CCOCC1)N1CCOCC1`, inactive: > 76.9 µM; in that of `CCn1c(=O)cc(OCC(=O)N2CCC3(CC2)OCCO3)c2ccccc21`, inactive: > 76.9 µM.
In the case of `CC1N(O)C2CCCCCC2N1O` (stereo unspecified) it was inactive: > 76.9 µM.
Consider `NCC(CC(=O)O)c1ccc(Cl)cc1` (stereo unspecified), for which the Potency was inactive: > 76.9 µM.
In the case of `Cc1cc(N2C(=O)C3CCCN3C2c2sccc2C)no1` (stereo unspecified) it was inactive: > 76.9 µM.
With `Cc1nnc(SCc2nc3ccccc3c(=O)n2-c2ccccc2Cl)n1N`, the Potency is inactive: > 76.9 µM.
In the case of `CC1(C)CC(=O)C=C(NCCN2CCN(C(=O)Cc3ccc(Cl)cc3)CC2)C1` it was inactive: > 76.9 µM; in that of `CCC(=NC1CCN(Cc2ccccc2)CC1)c1c(O)[nH]c(=O)[nH]c1=O`, inactive: > 76.9 µM; in that of `COc1cc2c(cc1OC)C(C(=O)N1CCC3(CC1)OCCO3)C(c1ccccc1F)N(C)C2=O` (stereo unspecified), inactive: > 76.9 µM.
As for `c1cncc(C2CC(c3cccs3)n3ncnc3N2)c1` (stereo unspecified), the figure is inactive: > 76.9 µM; as for `CC(C)(C)C(O)C(Oc1ccc(Cl)cc1)n1cncn1` (stereo unspecified), inactive: > 76.9 µM.
Consider `O=c1[nH]c(=O)n(C2CCCCCC2)c(O)c1C=NCC1CCCO1` (stereo unspecified), for which the Potency is inactive: > 76.9 µM.
In the case of `O=C(Cn1c(=O)c(C(F)(F)F)nc2ccccc21)N1CCC2(CC1)OCCO2` it was inactive: > 76.9 µM; in that of `Cc1cccc(C)c1NC1=NCCCCS1`, inactive: > 76.9 µM; in that of `CCCC(C)C1(CC)C(=O)NC(=Nc2ccccc2OC)NC1=O` (stereo unspecified), inactive: > 76.9 µM.
Turning to `O=C(CCc1nc(-c2ccccc2F)no1)N1CCC2(CC1)OCCO2`, the Potency is inactive: > 76.9 µM.
In the case of `O=C(c1cccs1)N1C2CCC1CC(O)(c1cccnc1)C2` (stereo unspecified) it was inactive: > 76.9 µM; in that of `O=C(COc1ccccc1)N1CCN(C2CCCC2)CC1`, inactive: > 76.9 µM.
Turning to `COc1ccc(N=C(C)c2c(O)n(C)c(=O)n(C)c2=O)c(OC)c1`, the Potency was inactive: > 76.9 µM.
As for `CN1C(=O)N(C)C(=O)C2(Cc3c(nc4ccccn4c3=O)N3CCc4ccccc4C32)C1=O` (stereo unspecified), the figure is inactive: > 76.9 µM; as for `CC(C)n1cc(C(=O)N(CC(=O)NC2CCCC2)Cc2ccccc2)cn1`, inactive: > 76.9 µM; as for `Nc1ccccc1N=Cc1c(O)n(CCC2=CCCCC2)c(=O)[nH]c1=O`, inactive: > 76.9 µM.
With `O=C(CN1CCCC1=O)N1CCOCC1`, the Potency was inactive: > 76.9 µM.
Regarding `CCOC(=O)N1CCC(NC(=O)CCc2nc(C3=CCN(C)CC3)no2)CC1`, the Potency was inactive: > 76.9 µM.
As for `CNP1(NC)=NC(C(F)(F)F)=NC(C(F)(F)F)=N1`, the figure is inactive: > 76.9 µM; as for `Cc1ccc(S(=O)(=O)N2CCC(C(=O)N3CCC4(CC3)OCCO4)CC2)cc1`, inactive: > 76.9 µM.
As for `OC1(c2ccc(F)cc2)CC2CCC(C1)N2Cc1nnnn1C1CCCC1` (stereo unspecified), the figure is inactive: > 76.9 µM.
As for `CCCN1C2CCCC1CC(NC(C)=O)C2` (stereo unspecified), the figure is inactive: > 76.9 µM; as for `CCS(=O)(=O)N1CCC(C(=O)N2CCC3(CC2)OCCO3)CC1`, inactive: > 76.9 µM; as for `CCC(=NCC1CCCO1)c1c(O)n(-c2ccccc2)c(=O)[nH]c1=O` (stereo unspecified), inactive: > 76.9 µM.
For `CC1CCC(C(=O)NC(C(=O)N2CCC3(CC2)OCCO3)C(C)C)CC1` (stereo unspecified), the Potency was inactive: > 76.9 µM.
In the case of `COc1cc2[nH]c(=O)n(-c3ccccc3)c(=O)c2cc1OC` it was inactive: > 76.9 µM; in that of `CC(=O)OC1(c2ccccc2)CCN(C)C2CCCCC21` (stereo unspecified), inactive: > 76.9 µM.
As for `COC(=O)C1C2c3ccccc3OC1(C)N=c1s/c(=C/c3cnn(C)c3C)c(=O)n12` (stereo unspecified), the figure is inactive: > 76.9 µM; as for `COc1ccc2c(c1)CC1(CN2C)C(=O)NC(=O)N(c2ccc(C)cc2)C1=O` (stereo unspecified), inactive: > 76.9 µM.
As for `COc1ccc(OC)c(CN2CCN(C(=O)COc3cccc(C)c3)CC2)c1`, the figure is inactive: > 76.9 µM; as for `COc1ccc(C2C(C(=O)N3CCC4(CC3)OCCO4)CC(=O)N2c2ccc(OC)cc2)cc1` (stereo unspecified), inactive: > 76.9 µM; as for `CC(C)OC(=O)c1c(N)n(CC2CCCO2)c2nc3ccccc3nc12` (stereo unspecified), inactive: > 76.9 µM.
For the compound `CC1CCCC(C2(O)C(=O)Nc3ccccc32)C1=O` (stereo unspecified), the Potency was inactive: > 76.9 µM.
In the case of `O=C(NCC(c1cccnc1)N1CCN(c2ccccc2)CC1)Oc1ccccc1` (stereo unspecified) it was inactive: > 76.9 µM; in that of `CC1(C)CC2(CCO1)NCCN1C(=O)CSC12` (stereo unspecified), inactive: > 76.9 µM.
As for `CN=C(SCc1cc2c(cc1Cl)OCO2)c1c(O)n(C)c(=O)n(C)c1=O`, the figure is inactive: > 76.9 µM; as for `Cc1ccc(OCC(=O)N2CCN(C)CC2)c(Br)c1`, inactive: > 76.9 µM.
In the case of `CN(C)c1ccc(NC(=O)CN2C(=O)CN=C(c3ccccc3)c3ccccc32)cc1` it was inactive: > 76.9 µM; in that of `CCCSc1nc(O)c(CC)c(=O)n1C(C)CC` (stereo unspecified), inactive: > 76.9 µM; in that of `COc1ccc(C2=NCC(=O)N(CC(=O)NCc3ccco3)c3sc4c(c32)CCCC4)cc1OC`, inactive: > 76.9 µM.
As to `COCCCn1c(N)c(C(=O)NCCC(C)C)c2nc3ccccc3nc21`, the Potency is inactive: > 76.9 µM.
As for `CCC(=NCc1cccnc1)c1c(O)n(Cc2ccccc2)c(=O)[nH]c1=O`, the figure is inactive: > 76.9 µM.
In the case of `CCN(CC)C(=O)c1ccc(NC(=O)Cn2nc(C)c3ccccc3c2=O)cc1` it was inactive: > 76.9 µM.
`CC1(C)CN=C(Nc2ccccc2C(F)(F)F)S1`: the Potency is inactive: > 76.9 µM.
`Cc1sc2ncn(CC(=O)N3CCC4(CC3)OCCO4)c(=O)c2c1C`: the Potency was inactive: > 76.9 µM.
As for `O=C(NC(Cc1ccccc1)C(=O)N1CCC2(CC1)OCCO2)C1CCCCC1` (stereo unspecified), the figure is inactive: > 76.9 µM.
